This note sets out measurements from article PMC4336329 (PLoS ONE, 2015).

Among all 310,000 compounds or so, about 14,000 (4.5%) showed an effect of 50% or more. Effects have a minus sign here. Some of the results follow.
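Note: peak tail current of the secondary pulse compared with the same well before compound.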

The experiment deals with human ether-à-go-go-related gene (hERG) potassium channel (human, UniProt Q12809). In words: primary screen, population patch clamp on CHO cells stably expressing hERG.
Sequence of human ether-à-go-go-related gene (hERG) potassium channel (Q12809 whole entry, looked up): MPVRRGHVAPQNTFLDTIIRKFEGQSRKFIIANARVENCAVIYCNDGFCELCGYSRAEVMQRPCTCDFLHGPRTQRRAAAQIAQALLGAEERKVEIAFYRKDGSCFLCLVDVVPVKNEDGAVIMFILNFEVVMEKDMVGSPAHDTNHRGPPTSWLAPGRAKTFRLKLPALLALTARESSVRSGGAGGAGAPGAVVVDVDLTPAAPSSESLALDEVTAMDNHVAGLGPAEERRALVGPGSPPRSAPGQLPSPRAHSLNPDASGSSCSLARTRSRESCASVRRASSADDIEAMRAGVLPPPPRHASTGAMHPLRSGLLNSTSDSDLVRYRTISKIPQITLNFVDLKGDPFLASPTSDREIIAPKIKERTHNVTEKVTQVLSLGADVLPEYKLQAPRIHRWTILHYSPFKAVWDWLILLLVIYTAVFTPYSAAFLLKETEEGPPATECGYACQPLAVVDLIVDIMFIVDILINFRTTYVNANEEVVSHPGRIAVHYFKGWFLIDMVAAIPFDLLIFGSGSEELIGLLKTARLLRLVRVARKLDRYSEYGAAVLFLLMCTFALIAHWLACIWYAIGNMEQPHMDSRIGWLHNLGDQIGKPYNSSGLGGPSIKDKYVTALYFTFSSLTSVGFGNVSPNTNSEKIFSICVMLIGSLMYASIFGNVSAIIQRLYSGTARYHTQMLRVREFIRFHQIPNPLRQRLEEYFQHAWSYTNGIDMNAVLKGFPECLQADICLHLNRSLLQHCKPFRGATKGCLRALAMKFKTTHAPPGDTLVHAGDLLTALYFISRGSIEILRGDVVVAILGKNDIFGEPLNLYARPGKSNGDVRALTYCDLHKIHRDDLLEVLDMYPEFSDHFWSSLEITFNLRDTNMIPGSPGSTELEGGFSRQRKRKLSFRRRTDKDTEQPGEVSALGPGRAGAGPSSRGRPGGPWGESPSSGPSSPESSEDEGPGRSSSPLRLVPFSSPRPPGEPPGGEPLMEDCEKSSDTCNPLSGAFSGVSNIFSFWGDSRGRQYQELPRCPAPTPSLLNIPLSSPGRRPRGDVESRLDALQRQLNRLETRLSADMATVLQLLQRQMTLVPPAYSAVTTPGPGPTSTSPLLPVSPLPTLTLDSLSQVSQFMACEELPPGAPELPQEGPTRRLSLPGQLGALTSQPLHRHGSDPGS
For `CC(CO)(CO)NC(=O)c1ccc(=O)[nH]n1`, the “hERG current change (%, negative = inhibition) at 10uM” value is given as -2.88%. For `CC1=NN(C2=NS(=O)(=O)c3ccccc32)C(C)(O)C1` (stereo not shown) the value was -24.2%; for `Cc1ccc(NC(=O)C2(N(C(=O)Cn3nnnc3N)c3ccc(C)cc3)CCCCC2)cc1`, 18.3%. For `CCc1nnc(NC(=O)C2CCCN2C(=O)Nc2ccccc2OC)s1` (stereo not shown) the value was 9.41%; for `O=C(COC(=O)C1C2CC3OC(=O)C1C3C2)Nc1ccc(F)cc1` (stereo not shown), 13.2%.

With `Nc1nn(-c2ccccc2)c(N)c1N=Nc1ccccc1F`, the “hERG current change (%, negative = inhibition) at 10uM” value is reported as -15.9%.

In the case of `[O-][n+]1c2ccccc2c2n1CCN=C2c1ccc(Cl)cc1`, the “hERG current change (%, negative = inhibition) at 10uM” value is listed as -0.431%.

As to `COc1ccc(S(=O)(=O)N2CCOCC2)cc1NC(=O)c1cccc(Cl)c1`, the “hERG current change (%, negative = inhibition) at 10uM” value is 11.7%.

Consider `COCCNC(=O)C(c1ccc(C)o1)N(Cc1ccc(OC)cc1)C(=O)Cn1nnc2ccccc21` (stereo not shown), for which the “hERG current change (%, negative = inhibition) at 10uM” value is -11%. On to `O=C(CCNC(=O)c1ccc(Br)o1)NC1CCCC1`, for which the “hERG current change (%, negative = inhibition) at 10uM” value was -10.8%.

As to `COc1ccc(/C=N/N=C2\CC3CCC2(C)C3(C)C)cc1O` (stereo not shown), the “hERG current change (%, negative = inhibition) at 10uM” value was -3.34%.

Regarding `COCCSc1ccccc1C(=O)NCc1ccc2c(c1)OCO2`, the “hERG current change (%, negative = inhibition) at 10uM” value is on record as -3.55%. For `O=C(CN1CCN(c2ccccc2)CC1)Nc1ccc2c(c1)OCCO2` the value was 5.46%; for `COc1ccc(N(CC(=O)N/N=C/c2ccccc2OC)S(=O)(=O)c2ccccc2)cc1`, 19.9%. Take `CCCN(C(=O)c1ccc(OCC(C)C)cc1)c1c(N)n(Cc2ccccc2)c(=O)[nH]c1=O`: the “hERG current change (%, negative = inhibition) at 10uM” value is -6.61%. For `O=C(NNC(=O)c1ccc(F)cc1F)c1ccc2c(c1)OCO2` the value was 10.9%; for `CC(C)c1ccc(O)c(C(=O)c2cnn(-c3ccccc3)c2)c1`, 11.4%; for `O=C(COc1cc(Cl)c(Cl)cc1Cl)NCCc1ccccn1`, -1.45%. The figure for `Cc1[nH]c2ccccc2c1/C=C/c1nc2ccccc2c(=O)n1CCO` is -9.31%; for `CC1CCN(C(=O)c2cc3ccccc3cc2O)CC1` it is -4.17%.

With `CC(=O)c1ccc(S(=O)(=O)NC2CC(=O)N(c3cccc(F)c3)C2)cc1` (stereo not shown), the “hERG current change (%, negative = inhibition) at 10uM” value is recorded as -28.1%.

As for `COc1cc(C(=O)NCc2cc(C)nc3ccccc23)cc(OC)c1OC`, the “hERG current change (%, negative = inhibition) at 10uM” value worked out at 24.4%.

For the compound `O=C(c1cc2ccccc2s1)N1CCOCC1`, the “hERG current change (%, negative = inhibition) at 10uM” value was 2.99%. The figure for `COc1ccc(S(=O)(=O)NCCSCc2ccco2)cc1OC` is -37.1%; for `CC(Sc1nnc(Nc2ccccc2F)s1)C(=O)NC1CC1` (stereo not shown) it is -11.4%.

With `COc1cccc(CN(C(=O)c2ccccc2Br)C2CCS(=O)(=O)C2)c1` (stereo not shown), the “hERG current change (%, negative = inhibition) at 10uM” value came out at 19%. The figure for `Cc1cc(C(=O)NNC(=O)c2cccc(S(=O)(=O)N3CCOCC3)c2)c2ccccc2n1` is 23%; for `CC1(c2nnc(-c3ccncc3)o2)CC(c2ccc(F)cc2)=NO1` (stereo not shown) it is -22.3%. With `COc1cccc(C(=O)C2CCCN(Cc3cccc(OCCO)c3)C2)c1` (stereo not shown), the “hERG current change (%, negative = inhibition) at 10uM” value is reported as -48.7%. For `CCOC(=O)c1c(NC(=O)CSc2nnc3ccccn23)sc2c1CCC2` the value was -18.7%.

On to `Cc1ccc(CNC(=O)COc2cc(O)c3c(c2)OC(C)(C)CC3=O)cc1`, for which the “hERG current change (%, negative = inhibition) at 10uM” value is given as -8.48%.

Regarding `O=C(COc1ccc(Cl)cc1Cl)NN=C1CCCCC1`, the “hERG current change (%, negative = inhibition) at 10uM” value is listed as 5.47%. Regarding `CCCCC(=O)Nc1ccc(NC(=O)C(C)C)cn1`, the “hERG current change (%, negative = inhibition) at 10uM” value is given as 12.1%. With `Cc1cccn2cc(CNC(=O)c3ccco3)nc12`, the “hERG current change (%, negative = inhibition) at 10uM” value is 0.32%. On to `Cc1ccc(NC(=O)CSc2nnc(-c3cccnc3)n2-c2ccc(C)cc2)cc1`, for which the “hERG current change (%, negative = inhibition) at 10uM” value is -21.4%. The figure for `c1ccc(C2=Nc3cccnc3C(c3ccccc3)=NN2)cc1` is 15.9%.

For the compound `O=C(CN1CCN(Cc2ccc(F)cc2Cl)C1=O)NCc1cccs1`, the “hERG current change (%, negative = inhibition) at 10uM” value is given as -25.2%.

Consider `O=C(CSc1nnc(-c2cccc(F)c2)o1)Nc1nncs1`, for which the “hERG current change (%, negative = inhibition) at 10uM” value came to 14.1%. For the compound `CCOC(=O)C1CCCN(Cc2ccc(O)c(OC)c2)C1` (stereo not shown), the “hERG current change (%, negative = inhibition) at 10uM” value is given as -6.59%.

In the case of `Cc1cccc(C(=O)NNS(=O)(=O)c2ccc(F)cc2)c1O`, the “hERG current change (%, negative = inhibition) at 10uM” value was determined as 18.1%. With `CCC(c1nnc(SCc2nc3ccccc3s2)n1Cc1ccccc1)N(C)C` (stereo not shown), the “hERG current change (%, negative = inhibition) at 10uM” value is -44.1%. The figure for `COc1ccccc1NS(=O)(=O)c1cccc(NC(=O)NCCCl)c1` is -17.1%; for `N#Cc1ccc(NC(=O)Nc2cccc(C#N)c2)cc1` it is -0.182%. For `O=c1cc(CN2CCN(Cc3ccccc3)CC2)c2ccc(O)cc2o1` the value was -76.8%; for `CC(=O)Nc1ccc(C(=O)CSc2nnnn2C)cc1`, 5.55%. The figure for `COCC(=O)N(Cc1cc2cc(C)ccc2[nH]c1=O)c1ccccc1` is 11.6%; for `Cc1ccc(NC(=S)NC(=O)C2CC2)c(C)c1` it is 20%. Consider `O=C(/C=C/c1ccc([N+](=O)[O-])cc1)NCc1cccnc1`, for which the “hERG current change (%, negative = inhibition) at 10uM” value is given as -42.7%. The figure for `O=C(Nc1ccc(NC(=O)c2ccco2)nc1)c1cccnc1` is -2.18%. For `Cc1oc2c(CN3CCCC3)c(O)ccc2c(=O)c1-c1ccc(Cl)cc1` the value was -6.69%; for `O=C(C1CCCN(S(=O)(=O)c2ccc(F)cc2)C1)N1CCCCCC1` (stereo not shown), -24%; for `Cc1cccc(NS(=O)(=O)c2cc([N+](=O)[O-])ccc2C)n1`, 11.4%. The figure for `COC(=O)c1cnc(N2CCCN(S(=O)(=O)c3ccc(C(F)(F)F)cc3)CC2)nc1C(F)(F)F` is 5.87%; for `Cc1c(C(=O)N(C)c2ccc(Cl)cc2)cnn1-c1ccccc1` it is 3.59%. For `CCOc1ccc(NC(=O)c2cccc3c2C(=O)N(CC2CCCO2)C3)cc1` (stereo not shown), the “hERG current change (%, negative = inhibition) at 10uM” value is -5.79%. On to `O=C(N/N=C/c1ccsc1)c1cc(-c2ccncc2)nc2ccccc12`, for which the “hERG current change (%, negative = inhibition) at 10uM” value is on record as -28.5%. `CCC(C(=O)O)n1cnc2scc(-c3ccc(C)c(C)c3)c2c1=O` (stereo not shown): the “hERG current change (%, negative = inhibition) at 10uM” value worked out at 19.1%. For `COc1ccc(Cc2n[nH]c(=S)n2Cc2ccccc2)cc1Cl` the value was -22.3%; for `CCCC(=O)N(CCN1CCOCC1)c1nc2c(C)ccc(C)c2s1.Cl`, -4.63%.

For `COc1ccccc1CNC(=O)C1CC(c2c(Cl)cccc2Cl)=NO1` (stereo not shown), the “hERG current change (%, negative = inhibition) at 10uM” value is on record as -17.8%. Consider `Cc1c(C)n(C)c2ccc(C(=O)NCc3cccs3)cc12`, for which the “hERG current change (%, negative = inhibition) at 10uM” value was -19.7%. Regarding `Cc1ccc(Cn2ccsc2=NC(=O)CCl)cc1`, the “hERG current change (%, negative = inhibition) at 10uM” value is recorded as 25%. For `O=C(Nc1cc(F)cc(F)c1)c1sc(Cl)nc1-c1ccccc1` the value was 0.238%; for `CC(NC(=O)c1cc(COc2ccccc2)on1)c1nccs1` (stereo not shown), -4.41%.

With `CCN(CC)S(=O)(=O)c1ccc(N2CCN(C)CC2)c(NC(=O)Nc2ccccc2F)c1`, the “hERG current change (%, negative = inhibition) at 10uM” value is -21%. For `Cc1cc(NC(=O)CSc2nnc(N)s2)c([N+](=O)[O-])cc1C` the value was 5.07%. For `COC(=O)C1=C(C)NC(C)=C(C(=O)OC)C1c1cn(-c2ccccc2)nc1-c1ccco1` the value was 8.61%; for `CCC1CCCCN1C(=O)Nc1cccc(NC(=O)N2CCCCC2CC)c1` (stereo not shown), 9.57%; for `Cc1ccc(N/C=C/C(=O)c2ccc(C)cc2)cc1`, -2.78%. As for `Cc1ccc(NC(=O)NCCCN2CCOCC2)cc1`, the “hERG current change (%, negative = inhibition) at 10uM” value was 4.63%.

For the compound `CC(/C=C/c1ccccc1)=N/NC(=O)c1nc2nc(C)cc(C)n2n1`, the “hERG current change (%, negative = inhibition) at 10uM” value is listed as -14.7%. On to `Cc1csc(=O)n1CC(=O)OCC(=O)NCc1ccc(Cl)cc1Cl`, for which the “hERG current change (%, negative = inhibition) at 10uM” value is on record as -3.2%. As for `Cc1cc(-c2csc(NC(=O)c3ccc(S(=O)(=O)N(C)C)cc3)n2)c(C)n1-c1ccccc1`, the “hERG current change (%, negative = inhibition) at 10uM” value amounted to 2.83%. The figure for `CCCCc1nc2sc3c(=O)n(N)cnc3c2c2c1CCC2` is 3.93%; for `COCCNC(=O)c1cccc(OC2CCN(Cc3ccc(Cl)c(F)c3)CC2)c1` it is -37.5%; for `COC(=O)c1ccccc1NC(=O)COC(=O)c1ccco1` it is 0.914%.

Regarding `Cc1cc(NC(=O)CSCC(=O)Nc2nc3ccccc3s2)no1`, the “hERG current change (%, negative = inhibition) at 10uM” value is given as -6.12%.

As for `COc1ccc(C(=O)/C=C(\C)NCc2ccc3c(c2)OCO3)cc1`, the “hERG current change (%, negative = inhibition) at 10uM” value is on record as -35.8%. For `COc1ccc(NC(C)=O)cc1NC(C)C(=O)Nc1ccc(S(=O)(=O)N2CCCCC2)cc1` (stereo not shown), the “hERG current change (%, negative = inhibition) at 10uM” value is given as 0.782%.

Take `Cc1ccc(C(=O)Nc2ccc(SC(F)F)cc2)s1`: the “hERG current change (%, negative = inhibition) at 10uM” value is on record as 24.4%. Consider `CCN(CC(=O)Nc1ccc(C)c(F)c1)CC(=O)NC(C)(C)C`, for which the “hERG current change (%, negative = inhibition) at 10uM” value worked out at 12.4%. `Cc1nc2ccc3[nH]snc3c2n1`: the “hERG current change (%, negative = inhibition) at 10uM” value is -0.204%. With `C=CCOc1ccccc1/C=N/NC(=O)c1ccc(Cl)cc1Cl`, the “hERG current change (%, negative = inhibition) at 10uM” value is listed as -6.98%. For `COc1ccccc1-c1nc2cc3ccccc3cc2nc1-c1ccccc1OC` the value was -4.3%. As to `COc1ccc(NC(=O)c2ccc3ncsc3c2)cc1`, the “hERG current change (%, negative = inhibition) at 10uM” value is 14.1%. With `Cc1ccc(CNC(=O)CCC2CCCN(Cc3cccc4c3OCO4)C2)o1` (stereo not shown), the “hERG current change (%, negative = inhibition) at 10uM” value is recorded as -63.2%.

For the compound `Cc1cnc(NC(=O)Cc2c[nH]c3ccccc23)s1`, the “hERG current change (%, negative = inhibition) at 10uM” value was -0.557%. In the case of `Cc1cccc(OC(C)C(=O)N2CCCc3ccccc32)c1` (stereo not shown), the “hERG current change (%, negative = inhibition) at 10uM” value is given as -2.93%.

As to `CC(OC(=O)c1cccs1)C(=O)NCc1ccccc1` (stereo not shown), the “hERG current change (%, negative = inhibition) at 10uM” value was -4.81%. The figure for `CC(=O)Nc1ccc(C(=O)NCCN2CCOCC2)cc1` is 15.8%. The figure for `O=C(Nc1ccnn1C1CCN(Cc2ccccc2)CC1)c1ccccc1Cl` is -76.1%.
